Data: paper PMC13042857, “TBK1 Induces the Formation of Optineurin Filaments That Condensate with Polyubiquitin and LC3 for Cargo Sequestration” (Advanced Science, 2025)

Target: T1, M1-linked di-ubiquitin (UniProt P0CG47 fragment; P0CG47 fragment)
T1 construct: ubiquitin, first unit of the linear (M1-linked, head to tail) di-ubiquitin; ubiquitin, second unit of the linear (M1-linked, head to tail) di-ubiquitin; the parent is probably pGEX-M1-linked tetra-ubiquitin (surmised); also called 2xM1-ub; di-M1-ubiquitin; source: GST-di-ubiquitin construct made with the Q5 mutagenesis kit; expression and purification not described for this construct
Experiment: ITC; OPTN or its variants in the cell, di-M1-ubiquitin in the syringe; 25 °C; 20 mM Tris-HCl pH 7.4, 150 mM NaCl, 0.5 mM TCEP; MicroCal PEAQ-ITC
Conditions: both partners purified

Kd: 110 nM
B1: Optineurin, wildtype (natural protein)
chain: not shown
notes: Optineurin, human, 577 amino acids; The molecule of the ITC; also called OPTN; WT OPTN; not shown: GST, N-terminal, cleaved
